A compilation of properties of binary mixtures (doi:10.1016/j.molliq.2021.118393)
The densities may have been worked out from excess volumes.

Test: xn = mol fraction of the nth substance listed
Conditions: 100 kPa

Compound	mass density (293.15 K, x2 = 0.333)	mass density (293.15 K, x2 = 0.5)	mass density (298.15 K, x2 = 0.333)	mass density (298.15 K, x2 = 0.5)	mass density (303.15 K, x2 = 0.5)	mass density (308.15 K, x2 = 0.5)	mass density (313.15 K, x2 = 0.333)	mass density (318.15 K, x2 = 0.333)	mass density (318.15 K, x2 = 0.5)	mass density (323.15 K, x2 = 0.333)	mass density (323.15 K, x2 = 0.5)	mass density (328.15 K, x2 = 0.333)	mass density (328.15 K, x2 = 0.5)	mass density (333.15 K, x2 = 0.333)	mass density (303.15 K, x2 = 0.333)
O=C(O)CCl + CCCC[N+](CCCC)(CCCC)CCCC.O=S(=O)([O-])O	1150.1 kg/m3	1113.6 kg/m3	1149.4 kg/m3	1110.2 kg/m3	1106.8 kg/m3	1103.3 kg/m3	1138.6 kg/m3	1135.1 kg/m3	1096.7 kg/m3	1131.7 kg/m3	1093.5 kg/m3	1128.2 kg/m3	1090.3 kg/m3	1124.7 kg/m3	
O=C(O)CCl + CCC[N+](CCC)(CCC)CCC.[Br-]	1227.1 kg/m3		1223.1 kg/m3				1211.8 kg/m3	1208.1 kg/m3		1204.3 kg/m3				1196.9 kg/m3	1219.4 kg/m3
